Article PMC12136788
The other results are listed elsewhere or left out.

T1: UNK ZnF1-3 (human, UniProt Q9C0B0 31-174)
T1 sequence: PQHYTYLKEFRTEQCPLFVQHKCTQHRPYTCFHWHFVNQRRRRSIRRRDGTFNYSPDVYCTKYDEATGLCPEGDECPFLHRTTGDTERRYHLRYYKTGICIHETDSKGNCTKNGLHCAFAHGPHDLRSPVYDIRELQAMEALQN

B1: 115634494_115634614_4909_3pUTR_ENSG00000148158_ENST00000374232|human|control|control (ssRNA)
RNA: GGGAGUUCUACAGUCCGACGAUCACUCUGGAUGUUCCUCGGGCUGCCAUCCCAAAAUUCCACUUGCAGACUGCCACAUGGUCAUCGUGCCCUCCUCUAAAGCAGAACUUCCUGUUAUUUGAUCACAAAAGGCAGCCUCACAAGCAACAGAGGAUUGAGCAUCA
B2: chr2:232320318:232320319:-_ENSG00000115053_ENST00000322723|hu_hu|hu_hu_hu_mus_True|48_58 (ssRNA)
RNA: GGGAGUUCUACAGUCCGACGAUCACUAUUAAAGUCUACAAAACCAAACCCUUUGGAAGAACCAGUUUCCCGAUCAGUAACUAUCCUUGCCCGAACGGAGCCCUCAAAUGAUUCUUUUAAGGUCUCUUCAGUGGUAUCCUCAGACAACAGAGGAUUGAGCAUCA
B3: chr14:102359341:102359342:+_ENSG00000078304_ENST00000445439|hu_mus|motif|central (ssRNA)
RNA: GGGAGUUCUACAGUCCGACGAUCCUUCAGUGGUAAGGCAAAUCCAUUAAUUAUACUUCCCAGGAUCUCCAGUAACUCCGCGGUGCCAUUGUGAUGCUCUGUCUCAUAGAUAAACCUAUAAAAUAUAUUAUUGAUCUGUUUCCUCAACAGAGGAUUGAGCAUCA
B4: chr6:57703266:57703267:-_ENSMUSG00000037788_ENSMUST00000114297|mus_mus|FALSE|FALSE (ssRNA)
RNA: GGGAGUUCUACAGUCCGACGAUCCUGAUUUUCUCAUUUACAAUGUCAGCCCCCUUCCUUGCAGCCCCACUCCCCACCAUACUACAUAUAAAUAAUCUAGACAUCUUAGCUAUACUUCCUUGCUCUUAGUACACAAGGUCUCAACAACAGAGGAUUGAGCAUCA
B5: 21926265_21926385_571_CDS_ENSG00000121361_ENST00000240662|human|control|control (ssRNA)
RNA: GGGAGUUCUACAGUCCGACGAUCGGCCACCAGCCACCACAUGAUAGCGAAGAGCAGCCAGCUGCAGAGGAAGGACAUGGUAAAGAUGACCAGCGUGUGGCGCCAUUUCAGGUCCACCAAGGUGGUGAAGAUGUCCUGUAGAAACAACAGAGGAUUGAGCAUCA
B6: chr7:135612270:135612271:-_ENSG00000105887_ENST00000393085|hu_mus|hu_hu_hu_mus_False|8_78 (ssRNA)
RNA: GGGAGUUCUACAGUCCGACGAUCGUUUUUUUCUGAGAUGUUAAAUAGUACUUCAGUAACAAAACUUACUUAACCUUUUAUUAAUGCGUGUUGUACCAAAAGCAGACAUUUUAGCUUCAUUUAUUCACUCAAAAUAUCAUUAAGCAACAGAGGAUUGAGCAUCA
B7: chr11:9430111:9430112:+_ENSG00000205339_ENST00000379719|hu_mus|FALSE|FALSE (ssRNA)
RNA: GGGAGUUCUACAGUCCGACGAUCGUGGAUAAUGGCUUCUACAAUAUUUUCUCGAAUACAAUGCCGGUCUUCUUCUGGAAUAGUAUAUGGAGCGAUGUCCCCUGGUGUGGCUUCCCGAUCAGGCCAAUAUUGUGUUAUCAUAUUCAACAGAGGAUUGAGCAUCA
B8: chr18:56819859:56819860:+_ENSG00000166562_ENST00000588875|hu_mus|hu_hu_hu_mus_True|18_88 (ssRNA)
RNA: GGGAGUUCUACAGUCCGACGAUCAACCUUGAUUACUCUGUGAACUAUUGGAAUGUCUCUUCCUUCAACCUUAAAAACAACUAUUUCACCAGCUCUGAUGGGGUCCUCCCGGAAAUUUGUGAGGAACAGCAGAUCUCCUCUGUGCAACAGAGGAUUGAGCAUCA
B9: chr14:88400820:88400821:-_ENSG00000054983_ENST00000261304|hu_hu|motif|central (ssRNA)
RNA: GGGAGUUCUACAGUCCGACGAUCGAGCUACCUCAGUGUUAGCAGCAAGGCUUCGAGGUCUGUACUACUCAAACCACUCCGGAGGGUAUGGCCAAUGCACAGUUUGAAUGUUAGGGAACACACCAGGUAAUGUUAAAGAUUCACCAACAGAGGAUUGAGCAUCA
B10: 166768614_166769904_2691_CDS_ENSMUSG00000002718_ENSMUST00000002790|mouse|control|control (ssRNA)
RNA: GGGAGUUCUACAGUCCGACGAUCGCCAAUGAGAGAUUGUAACAAAGGAGUCCACAGCUUAGUGUACUCCGUGUCCAUCAUUGGUGGACACUCUGUGAGUAAUUUGGUUAUGCCAACUGCACAGAUUUUUUUCUCCACGUUCCCCAACAGAGGAUUGAGCAUCA
B11: chr2:179515052:179515053:+_ENSMUSG00000000305_ENSMUST00000000314|mus_hu|mus_mus_mus_hu_False|28_68 (ssRNA)
RNA: GGGAGUUCUACAGUCCGACGAUCGCUGUCCCAUGCAGUCACCGUGAACGCCACCUGCUCGGAGGGGAUCUUCAACUCCCGGGUGGCGAAGACUGUCCCAUCUGCCCCGACUUUGAAGUCCAUGCUGUUGGUCUCAUAUUGUGUCAACAGAGGAUUGAGCAUCA
B12: chr1:33855670:33855671:-_ENSMUSG00000042197_ENSMUST00000044455|mus_mus|motif|central (ssRNA)
RNA: GGGAGUUCUACAGUCCGACGAUCAUUAAGAAGGAGUACAUUUAAAUAGUGCAAUUGUACAGGUGAUAAAGGUAACAAACGGAGAGUAAAUCACUGUACAAACGUUACAUAAAUACCACAUCAAAGGCUAGGUCUUAAACGUAACAACAGAGGAUUGAGCAUCA
B13: 145239222_145239342_111_3pUTR_ENSMUSG00000074182_ENSMUST00000098534|mouse|control|control (ssRNA)
RNA: GGGAGUUCUACAGUCCGACGAUCGCAGAUUCCAUGAGCUCACGAGCCUAGGCCGAAGCUGCCACUCCGUUCUUCACGGUGGCACCACCAAGCCAAUAAGAGAGAUUACCAAACGAACCGCCGACAGCGCCACACGUGCAGCAACAACAGAGGAUUGAGCAUCA
B14: chr7:141441981:141441982:+_ENSG00000106028_ENST00000265304|hu_mus|hu_hu_hu_mus_False|78_88 (ssRNA)
RNA: GGGAGUUCUACAGUCCGACGAUCCUCAUGUCUUACAAACUGACGAAGUACCUGUAAUACAGGUCUUCGAAACAUGGCUUCUGUUUUUCUUACAACCUAAUCUUUAGGCUUUUCCUAAAGGAAAGAAAGAAAAGAGAAAAAUGACAACAGAGGAUUGAGCAUCA
B15: chr16:94651144:94651145:+_ENSMUSG00000040785_ENSMUST00000117648|mus_hu|mus_mus_mus_hu_True|68_68 (ssRNA)
RNA: GGGAGUUCUACAGUCCGACGAUCAUUUUCUUGAAUCAAGUGGCGAAUAACAUAGUCCACUGCUUCAUGGACAAAAUUUCUGCUAGAAAAACAGGUUGUAUAGUCUUCUGUGCUCAAAACUUUCCAAGAAAGCAAUUCUUUGAGCAACAGAGGAUUGAGCAUCA
B16: chr5:92956547:92956548:-_ENSG00000113391_ENST00000395965|hu_hu|FALSE|FALSE (ssRNA)
RNA: GGGAGUUCUACAGUCCGACGAUCCCAGUGAACCCAUAUUGCUUUGACAGUUGCACUCAUCUAGAAAUAAUGCAAAACGCUAUUUAGAUGUAUAUAUCACGACCCUGGGCUCUGGGAAGAAAACAAUCUAAUGAGGGGCUGGGACAACAGAGGAUUGAGCAUCA
B17: chr5:128440902:128440903:+_ENSG00000066583_ENST00000173527|hu_mus|hu_hu_hu_mus_True|78_98 (ssRNA)
RNA: GGGAGUUCUACAGUCCGACGAUCUUGAACGGUGCUGCCAAGACCUUUGGGGUAUUGUUCUGUUACAAUAACUGGAAUCCCUAAGAUCCGAGCUCCUUGCAACAGUCUCUGUCCCACACUAAUGAUGUCCCCAAAGUAUUUGAUCAACAGAGGAUUGAGCAUCA
B18: chr2:48026839:48026840:+_ENSG00000116062_ENST00000540021|hu_hu|hu_hu_hu_mus_False|18_18 (ssRNA)
RNA: GGGAGUUCUACAGUCCGACGAUCAUAGUGAGCCACUAGCGUCCUAAAUCUGGAACAGUGGCGGUCAUCCGAAAACUGGCCGAUGAAAAACUUGCCCAGUGAAGUGUCCACAAAGCACACACCAUAUACACGAGUGUGACCAGACAACAGAGGAUUGAGCAUCA
B19: chr8:48265483:48265484:-_ENSMUSG00000038143_ENSMUST00000079195|mus_hu|FALSE|FALSE (ssRNA)
RNA: GGGAGUUCUACAGUCCGACGAUCAUAUCUUAAAAAGUAACACAAUCCAAAAUGGAUAUUUCACACAACACUACAUAAACAACAUGAACACAGUAUCACCAUAGGGAGGGACUUUCAAAUAUAGACUUACAAAAAUCCCUGUCCCAACAGAGGAUUGAGCAUCA
B20: chr1:225611761:225611762:-_ENSG00000143815_ENST00000272163|hu_mus|hu_hu_hu_mus_True|1_58 (ssRNA)
RNA: GGGAGUUCUACAGUCCGACGAUCCCAGGCCAUCGGCCUCUGACCACUUCACCCUCAACAAACUUCCUACUUGGCAUUUUCUAUAAUUAGUCUGGCCGCGCUCCGGCGGGAACUCCAGCCACUCCAGGACAGUCACCCGCACAGCAACAGAGGAUUGAGCAUCA
B21: chr11:10830335:10830336:-_ENSG00000110321_ENST00000339995|hu_mus|FALSE|FALSE (ssRNA)
RNA: GGGAGUUCUACAGUCCGACGAUCGCAGCUGCCUCCUCUGGAUCCGGUCGUCGGGGACGGGGAAGGGAGGGGGAAGGGGAACGGAAAACAAAAAAGGGGGAGGGAAGGGGGAGGAAGGAGACGCGGCCGGCUUGAAAGUCUCAGCAACAGAGGAUUGAGCAUCA
B22: chr1:220276048:220276049:+_ENSG00000067704_ENST00000302637|hu_hu|FALSE|FALSE (ssRNA)
RNA: GGGAGUUCUACAGUCCGACGAUCGCAAACAGCUUCAUUGGCUGGAAUCGUCCAAGGUUGUGUGGUCCAGACCAAAAUACUAACAGGAGAUGAACCAUCUAUAAGAGAUGCCAAUUUUGGAGAAGGCUUUAAGAGAGGAAAUUUCAACAGAGGAUUGAGCAUCA

Target: T1, UNK ZnF1-3
Assay: nsRBNS (natural sequence RNA bind-n-seq); RBNS binding buffer (assumed for nsRBNS): 25 mM Tris pH 7.5, 150 mM KCl, 3 mM MgCl2, 0.01% Triton X-100, 500 ug/ml BSA, 20 U/ml SUPERase-In, 4 C; UNK is unkempt and MSI1 is Musashi-1; names of the RNAs are library labels; protein concentration not given here; high values mean tight binding

Point of comparison: B5, binding signal 1.12 enrichment R. Against it:
- B1 — lower, 0.644 enrichment R
- B2 — lower, 0.599 enrichment R
- B3 — higher, 1.47 enrichment R
- B4 — higher, 1.27 enrichment R
- B6 — lower, 0.53 enrichment R
- B7 — lower, 0.912 enrichment R
- B8 — lower, 0.848 enrichment R
- B9 — higher, 1.23 enrichment R
- B10 — lower, 0.941 enrichment R
- B11 — lower, 0.611 enrichment R
- B12 — lower, 0.827 enrichment R
- B13 — higher, 1.23 enrichment R
- B14 — lower, 0.573 enrichment R
- B15 — lower, 0.519 enrichment R
- B16 — higher, 1.46 enrichment R
- B17 — lower, 0.539 enrichment R
- B18 — higher, 1.18 enrichment R
- B19 — higher, 1.22 enrichment R
- B20 — higher, 1.17 enrichment R
- B21 — higher, 2.21 enrichment R
- B22 — higher, 1.83 enrichment R
